Assay results: the supplement of paper PMC8285479
Structures can show the parent of a compound that is named as a salt. ± gives the standard deviation of the averaged measurements. Over roughly 1,900 compounds, “normalised cell viability (NPI; 0 = phenylarsine oxide control, 1 = DMSO control)” has its median near 1; the lowest 2% begin near 0.039. This is one part of the list.

Tested on: NCI-H1944
Assay: normalised cell viability (NPI; 0 = phenylarsine oxide control, 1 = DMSO control) (fraction of DMSO control); NCI-H1944 is a non-small cell lung cancer line; higher = more viable cells (less compound toxicity)
Settings: 6 days
[1] = glucocorticoid arm: hydrocortisone 2.75 uM co-treatment, compound 1 µM
[2] = glucocorticoid arm: hydrocortisone 2.75 uM co-treatment, compound 5 µM
[3] = glucocorticoid arm: hydrocortisone 2.75 uM pre-treated 2 days and continued, compound 1 µM
[4] = glucocorticoid arm: hydrocortisone 2.75 uM pre-treated 2 days and continued, compound 5 µM
[5] = glucocorticoid arm: vehicle, compound 1 µM
[6] = glucocorticoid arm: vehicle, compound 5 µM
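Further: CTB read-out in 384-well plates, mean of triplicate wells, normalised per plate against 1 µM phenylarsine oxide and 0.1% DMSO, compounds added 24 h after seeding.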

Compound | normalised cell viability [1] | normalised cell viability [2] | normalised cell viability [3] | normalised cell viability [4] | normalised cell viability [5] | normalised cell viability [6]
Nc1ncn([C@@H]2O[C@H](CO)[C@@H](O)[C@H]2O)c(=O)n1 [Azacitidine] | 1.03 | 1.11 ± 0.025 | 1 ± 0.037 | 0.952 ± 0.24 | 0.976 ± 0.011 | 0.903 ± 0.017
Nc1ncn([C@@H]2O[C@H](CO)[C@@H](O)[C@H]2O)c(=O)n1 [5-azacytidine] | 1.006 ± 0.0063 | 1.03 | 1.01 ± 0.018 | 1.08 ± 0.014 | 0.972 ± 0.015 | 0.8937 ± 0.006
Nc1ncn([C@@H]2O[C@H](CO)[C@@H](O)[C@H]2O)c(=O)n1 [Azacitidine; 5-azacytidine] | 1.04 ± 0.026 | 1.11 ± 0.015 | 1.04 ± 0.01 | 1.1 ± 0.021 | 0.98 ± 0.017 | 0.766 ± 0.025
O=C(Nc1ccc(OC(F)(F)F)cc1)c1sccc1NCc1ccnc2ccccc12 | 1.033 ± 0.0058 | 1.09 ± 0.03 | 1.027 ± 0.0058 | 1.05 ± 0.021 | 1.003 ± 0.0058 | 1.007 ± 0.0058
CCCCCCCCCCCCCCCCCCOP(=O)([O-])OC1CC[N+](C)(C)CC1 [Perifosine] | 1.01 ± 0.017 | 1.02 ± 0.018 | 1.005 ± 0.0087 | 1.027 ± 0.0058 | 1.003 ± 0.0058 | 0.999 ± 0.011
CN(C)CCC(c1ccc(Cl)cc1)c1ccccn1 (single isomer, unassigned; (+)) [(+)-Chlorpheniramine maleate] | 0.9827 ± 0.0045 | 0.997 ± 0.012 | 0.979 ± 0.004 | 1.005 ± 0.0071 | 0.968 ± 0.011 | 0.978 ± 0.003
O=C(N[C@@H](Cc1ccccc1)C(=O)CCl)OCc1ccccc1 [Z-L-Phe chloromethyl ketone] | 1.03 ± 0.01 | 0.028 ± 0.0044 | 1.02 ± 0.016 | 1.075 ± 0.0071 | 1.03 ± 0.01 | 0.149 ± 0.086
Cc1scc2c1N(C(=O)CN1CCN(C)CC1)c1ccccc1NC2=O [Telenzepine dihydrochloride] | 1 ± 0.015 | 1.02 ± 0.015 | 1.03 ± 0.026 | 1.004 ± 0.01 | 1.003 ± 0.0058 | 1
CC(COc1ccc(/C=C/c2ccccc2)cc1)[N+](C)(C)C (stereo not given) | 0.999 ± 0.019 | 0.91 ± 0.025 | 1.01 ± 0.029 | 1 ± 0.013 | 1.023 ± 0.0058 | 1.03 ± 0.011
Cn1c(=O)c2nc[nH]c2n(C)c1=O [Theophylline] | 1.001 ± 0.0085 | 1.01 ± 0.01 | 1.02 ± 0.021 | 0.9943 ± 0.0049 | 0.99 ± 0.0087 | 0.9907 ± 0.0038
CO[C@@]12[C@H](COC(N)=O)C3=C(C(=O)C(C)=C(N)C3=O)N1C[C@@H]1N[C@@H]12 [Mitomycin; Mitomycin C] | 1 ± 0.013 | 0.00117 ± 0.0012 | 1.017 ± 0.0058 | 0.0028 ± 0.00069 | 0.9803 ± 0.0055 | 0.000408 ± 0.00038
CC1=Nc2ccc(Cl)cc2S(=O)(=O)N1 [Diazoxide] | 0.994 ± 0.015 | 0.97 ± 0.019 | 1 ± 0.022 | 0.971 ± 0.015 | 0.9907 ± 0.0031 | 0.985 ± 0.0027
Cc1ccc(Cl)c(Nc2ccccc2C(=O)O)c1Cl [Meclofenamic acid sodium salt] | 0.986 ± 0.01 | 0.986 ± 0.022 | 0.9947 ± 0.0059 | 1.02 ± 0.086 | 0.9957 ± 0.0021 | 0.998 ± 0.011
CC(C)(Cc1ccc2ccccc2c1)NC[C@@H](O)COc1cccc(Cl)c1C#N | 1.01 | 0.939 ± 0.011 | 1.017 ± 0.0058 | 0.954 ± 0.022 | 1.003 ± 0.0058 | 0.9797 ± 0.004
O=C1Nc2ccc(I)cc2C1=Cc1cc(Br)c(O)c(Br)c1 | 1.047 ± 0.0058 | 1.113 ± 0.0058 | 1.04 ± 0.01 | 1.08 ± 0.021 | 1.02 ± 0.01 | 1.043 ± 0.0058
